According to US20190284293A1, “COMBINATION THERAPY WITH ANTI-CD73 ANTIBODIES” (BRISTOL-MYERS SQUIBB COMPANY, priority 2016, published 2019):

Columns and labels:
[1] = SEC-MALS, oligomeric state of CD73 mAbs; assay type: physicochemical
Procedure: The oligomeric state of CD73 mAbs were examined by size-exclusion chromatography coupled to an in-line multi-angle light scattering detector (SEC-MALS). Isocratic separations were performed on a Shodex PROTEIN KW-803 column connected to an Prominence Shimadzu UFLC in buffer containing 200 mM K2HPO4, 150 mM NaCl, pH 6.8, containing 0.02% Na azide (0.1 μm filtered) running at 0.5 mL/min. Samples were injected onto the column using a SIL-20AC Prominence Shimadzu autosampler, and data were obtained from three online detectors connected in series: a Prominence SPD-20AD diode array UV/vis spectrophotometer followed by a Wyatt miniDAWN™ TREOS Multi-Angle Light Scattering Detector then a Wyatt Optilab T-rEX Refractive Index Detector. Data (as shown in Table 15 below) were collected and analyzed using Astra (Wyatt) and Labsolutions (Shimadzu) software.

[2] = Differential scanning calorimetry (DSC), thermal stability; assay type: physicochemical; details: PBS pH 7.1
Procedure: The thermal stability of CD73 mAbs were determined using a MicroCal Capillary DSC instrument (GE Healthcare). Antibodies were analyzed at a concentrations of 0.5-0.75 mg/ml in PBS pH 7.1. To stabilize the DSC instrument baseline and obtain a consistent thermal history, multiple scans of buffer alone in both the sample and reference cell were recorded prior to sample analysis. Sample scans contained mAb in the sample cell and PBS pH 7.1 in the reference cell. All scans were run from 10-110° C. at a scan rate of 60°/hr using a 5 minute pre-cycle thermostat period and no post-cycle thermostat period. Data (as shown in Table 15 below) were analyzed using MicroCal Origin Cap DSC analysis software. The appropriate buffer-buffer blank scans were subtracted from the sample-buffer data, and the transition midpoint temperature (Tm) values were determined by fitting the data to a non-2-state model. Tm1, Tm2 and Tm3 are the Tms for different domains in the antibodies.

CD73 in Calu6 cells = target: T1, CD73 in Calu6 cells (Homo sapiens, UniProt P21589); experiment: High-content internalization assay (2 hour fixed time); assay type: cell-based
T1 construct: Calu6 (CD73 endogenous expressors; human pulmonary adenocarcinoma cell line); endogenous in cells; host or cells: Calu6
T1 sequence (P21589 27-549): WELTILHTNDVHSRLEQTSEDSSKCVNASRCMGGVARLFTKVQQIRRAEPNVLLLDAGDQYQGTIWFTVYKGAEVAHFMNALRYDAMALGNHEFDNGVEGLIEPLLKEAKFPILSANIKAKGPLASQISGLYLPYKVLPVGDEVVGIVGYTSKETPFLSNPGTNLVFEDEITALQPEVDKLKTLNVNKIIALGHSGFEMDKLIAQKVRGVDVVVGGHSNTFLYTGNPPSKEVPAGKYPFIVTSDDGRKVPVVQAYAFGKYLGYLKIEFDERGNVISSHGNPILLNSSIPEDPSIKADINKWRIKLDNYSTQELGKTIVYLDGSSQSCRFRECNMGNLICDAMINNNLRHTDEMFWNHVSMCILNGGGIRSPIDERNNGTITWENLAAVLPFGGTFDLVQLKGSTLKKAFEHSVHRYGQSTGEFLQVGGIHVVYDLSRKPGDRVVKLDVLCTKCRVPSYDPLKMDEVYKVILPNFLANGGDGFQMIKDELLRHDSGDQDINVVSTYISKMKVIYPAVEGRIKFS
Procedure: The anti-CD73 antibodies were used to test anti-CD73 antibody dependent CD73 internalization in Calu6 cells by assessing cellular expression after 2 hours of antibody incubation. Cells (2,000 cells/well) in 20 μl of complete medium (Gibco RPMI Media 1640 with (0% heat inactivated fetal bovine serum) were plated in 384 BD Falcon plate and grown overnight at 37° C. 5% CO2 and 95% humidity. Anti-CD73 antibodies were serially diluted with PBS buffer containing 0.2% BSA, and added at 5 μl/well into the cell plate. The cells were incubated with antibodies for 2 hours at 37° C. 5% CO2 and 95% humidity, followed by washing once with PBS buffer. Formaldehyde (final 4% in PBS) was then added into cell plate at 20 ul/well, and the plate was incubated at room temperature for 10 minutes. Afterwards, all liquid was aspirated and cells were washed once with 30 ul PBS. Detection antibody (2.5 μg/well of anti-CD73 Ab CD73.10.IgG2C219S) was added at 15 μg/well into the fixed cell plate. The cells were incubated at 4° C. overnight. On the next day, the plate was washed twice with PBS buffer, followed by adding secondary antibody containing Alexa-488 goat anti human and DAPI, stained for 1 hour at room temperature. […] IC50 and Ymax were measured. […] All calculations were determined as a percentage of internalization compared to this control, which was set to 100%.

B1: 5F8: human anti-human CD73 monoclonal antibody, IgG1za, predominant light chain VK1 (antibody)
heavy: EVQLVESGGGLVQPGGSLRLSCAASGFTFSSYWMHWVRQAPGKGLVWVSRIISDGSSTGYADSVKGRFTISRDNAKNTLYLQMNSLRAEDTAVYYCAREFSSGWYFDYWGQGTLVTVSS[human IgG1 constant region cut from this listing]
light: AIQLTQSPSSLSASVGDRVTITCRASQGISSALAWYQQKPGKAPKLLIYDASSLESGVPSRFSGSGSGTDFTLTISSLQPEDFATYYCQQFSSYPRTFGQGTKVEIKRTVAAPSVFIFPPSDEQLKSGTASVVCLLNNFYPREAKVQWKVDNALQSGNSQESVTEQDSKDSTYSLSSTLTLSKADYEKHKVYACEVTHQGLSSPVTKSFNRGEC
SEC % HMW [1]: 2.3%
SEC % LMW [1]: 0.0%
SEC % Monomer [1]: 97.7%
DSC Tm1 (° C.) [2]: 68.7 °C
DSC Tm2 (° C.) [2]: 82.7 °C
DSC Tonset (° C.) [2]: 59.0 °C
internalization of bin 2 antibodies (CD73 in Calu6 cells): did not internalize significantly
